Source: PubChem BioAssay AID493208 (National Center for Advancing Translational Sciences (NCATS), 2011)
The campaign covered roughly 44,000 compounds. About 340 (0.77%) were called active. Inconclusive results (about 5%) are left out. The call rests on the fitted dose curve; in most records, active means well fitted inhibition curve with a large enough effect; inconclusive means small, poorly fitted or top-dose-only effect; inactive means flat fitted curve, though single readings scatter. The list shows a part of the results.

Test: Acumen qHTS Assay for Inhibitors of the mTORC1 Signaling Pathway in MEF (Tsc2-/-, p53-/-) Cells: Sytravon;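 further: plate controls were DMSO for no effect and rapamycin for full effect; nearly all actives have a fitted effect of over 50% in size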
Conditions: phospho-rpS6 immunofluorescence/PI, 24 h; series mostly up to 38.3 µM; activity change, negative = inhibition: at the top concentration
Procedure, shortened: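 Plate MEFs (Tsc2-/-, p53-/-, empty vector) in DMEM/10% FBS; after 24 h add compound, incubate 24 h at 37 degree Celsius; fix in PFA/TX-100, block, stain phospho-rpS6 and 10 uM PI; scan at 488 nm; report % positive cells.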

Activity change, negative = inhibition, inactive:
Cc1ccc(CNC(=O)CSCc2nc(-c3cccc(C)c3)oc2C)cc1 3.24%
O=C(CCC1N=C2c3ccccc3N=C(SCC(=O)NCCc3ccccc3)N2C1=O)NCc1ccc(F)cc1 (centres undefined) -0.955%
CCC(NC(=O)Nc1cccc(C)c1)c1c(-n2cccc2)sc2c1CCN(C)C2 (centres undefined) 0%
CCOc1ccc(OCC)c(NC(=O)C2CCCN(S(=O)(=O)c3ccc(C)cc3)C2)c1 (centres undefined) -7.04%
CCCN(CCC)C(=O)Cn1c(=O)n(-c2ccc(Cl)c(Cl)c2)c(=O)c2c(C)c(C(=O)N(C)C)sc21 -0.034%
O=C(Cn1c(=O)n(-c2ccccc2Cl)c(=O)c2sc3ccccc3c21)NC1CCCC1 3.38%
CCOc1ccc(-c2nnc(SCC(=O)N(CC)c3cccc(C)c3)o2)cc1 -3.88%
Cc1ccn2c(Nc3ccc4c(c3)OCCO4)c(-c3ccc(N(C)C)cc3)nc2c1 -5.55%
COc1ccccc1CNC(=O)CSc1cc(C)[nH]c(=O)n1 0.269%
COc1ccc(-c2c(C)nn3c(N4CCN(c5cc(Cl)ccc5C)CC4)cc(C)nc23)cc1OC -18.4%
COCCCNC(=O)C1CCN(c2nc3ccc(Cl)cc3[nH]2)CC1 -19.9%
CC1=C(c2ccc(C(C)C)cc2)S(=O)(=O)NC1=NCc1ccc(Cl)cc1 6.78%
CCc1ccc2occ(CC(=O)Nc3ccc(C)c(C)c3)c2c1 -24.6%
CCOC(=O)c1ccccc1NC(=O)c1nn(-c2ccc(OC)c(Cl)c2)c(=O)c2c1c1ccccc1n2C -9.58%
Cc1ccc(CNC(=O)CCCc2nnc3n(CC(C)C)c(=O)c4sccc4n23)cc1 -2.12%
Cc1sc2ncn(CC(=O)N3CCN(c4ccccc4)CC3)c(=O)c2c1S(=O)(=O)N1CCC(C)CC1 -0.217%
O=c1c2nncn2ccn1-c1ccc(F)c(F)c1 15.7%
O=C(c1cc2cc3ccc(Cl)cc3nc2o1)N1CCN(c2cccc(Cl)c2)CC1 -7.75%
O=C(CN1C(=O)CSc2ccc(S(=O)(=O)N3CCCC3)cc21)NCc1ccc(F)cc1Cl -1.03%
CCN(CC)C(=O)C1CCCN(c2ncnc3c2c(-c2ccccc2)cn3-c2cccc(C)c2)C1 (centres undefined) 7.12%
CCc1cccc(C)c1NC(=O)Cn1ncc2c3ccccc3n(Cc3ccccc3)c2c1=O -3.11%
COc1ccc(-c2cn3nc(SCC(=O)Nc4cc(C)cc(C)c4)ccc3n2)cc1 -9.12%
CCCSc1ncnc2c1c(-c1ccccc1)cn2-c1ccccc1OC 1.8%
COc1ccc(OC)c(NC(=O)CS(=O)(=O)Cc2nc(-c3ccc(C)cc3)oc2C)c1 -0.114%
CCOc1ccc2c(c1)c(=O)c(S(=O)(=O)c1ccc(CC)cc1)cn2Cc1cccc(Cl)c1 3.36%
Cc1ccc(Cl)cc1Nc1nn2c(=O)c3ccc(C(=O)NC4CCCCC4)cc3nc2s1 1.68%
COc1ccc(CNC(=O)c2ccc(CS(=O)(=O)c3ccc(Br)cc3)o2)cc1 -6.38%
CCCCOC(=O)c1ccc(Nc2nc3ccc(C(=O)c4ccccc4)cc3n3cnnc23)cc1 1.96%
CCOc1ccc(OCC)c(NC(=O)c2cc(-c3cccs3)nc3ccccc23)c1 1.19%
O=c1c2sccc2n(Cc2cc(=O)n3cc(Cl)ccc3n2)c(=O)n1-c1ccccc1 4.18%
O=C1CCSc2ccc(S(=O)(=O)Nc3cccc(C(F)(F)F)c3)cc2N1 0%
O=c1c(N2CCN(c3cccc(Cl)c3)CC2)csc2ccc(Cl)cc12 -4.06%
CCOC(=O)c1[nH]c(C)c(CCC(=O)Nc2cc(Cl)c(OC)cc2OC)c1C 0%
CCC(C)NC(=O)c1cn(CC)c2ccc(S(=O)(=O)N3CCc4ccccc4C3)cc2c1=O (centres undefined) 0.657%
Cc1ccc(CCNC(=O)c2ccc3c(c2)N(Cc2ccc(F)cc2)CCS3)cc1 1.86%
O=C(NC1CCCCCC1)c1ccc(CS(=O)c2cccc(Cl)c2)o1 (centres undefined) -4.22%
O=C(CSc1nc2ccccc2n1Cc1cccc(F)c1)N1CCN(c2ccc(F)cc2)CC1 0.942%
Cc1cc(C)c(NC(=O)Cn2c(=O)n(CC(=O)NCCc3ccccc3)c(=O)c3ccccc32)c(C)c1 9.97%
Cc1nc(-c2ccc(C)c(S(=O)(=O)N3CCC(C(=O)NCc4ccc(F)cc4)CC3)c2)no1 -5.98%
Cc1cc(N2CCC(C)CC2)nc2ccc(NC(=O)CCC(=O)N3CCN(c4ccccc4F)CC3)cc12 -27.8%
O=S(=O)(c1ccc2nc(Nc3ccc(F)cc3)ccc2c1)N1CCCC1 0%
Cc1ccc(C)c(CNC(=O)CN2C(=O)CSc3ccc(S(=O)(=O)N(C)C)cc32)c1 -13.2%
COc1ccccc1N1CCN(S(=O)(=O)CCNC(=O)C(c2ccccc2)c2ccccc2)CC1 -1.87%
COc1ccc(S(=O)(=O)N(CCc2ccccc2)CC(=O)Nc2cc(C)cc(C)c2)cc1OC 1.3%
CCc1ccc(NC(=O)Cn2c(=O)n(CCc3ccccc3)c(=O)c3sc4ccccc4c32)cc1 2.52%
CC(=O)c1cccc(N2C(=O)CN(S(C)(=O)=O)CC2(C)C(=O)NC2CCCC2)c1 (centres undefined) -15.2%
CCc1ccc(NC(=O)c2sc3nc(C)cc(C)c3c2NC(=O)c2ccccc2OC)cc1 1.77%
CCN(Cc1ccccc1)C(=O)CCS(=O)(=O)c1ccc2c(c1)CCN2C(C)=O 0.608%
O=C(NC1CCCCC1)c1ccc2c(c1)N(Cc1cccc(Cl)c1)C(=O)c1ccccc1S2=O (centres undefined) -0.0683%
CCc1ccc(-c2nc(CSCC(=O)NCc3ccc(C)cc3)c(C)o2)cc1 0.545%
COc1ccc(CN2CCN(S(=O)(=O)c3ccc(NC(C)=O)cc3)CC2)c(OC)c1OC -2.48%
CC(=O)c1cc2c(cc1N/C(=N/S(=O)(=O)c1ccc(F)cc1)c1ccccc1)OCO2 0.138%
O=C(Cn1ncc2c3ccccc3n(Cc3cccc(Cl)c3)c2c1=O)N1CCCCCC1 0.154%
O=C(NCc1ccco1)c1ccc2c(c1)N(Cc1cccc(Cl)c1)C(=O)c1ccccc1S2=O (centres undefined) -7.19%
CCOc1ccc(CCNC(=O)Cn2c(C)c3cnn(-c4ccccc4)c(=O)c3c2C)cc1 0.295%
COc1cc(OC)c(NC(=O)CSc2cc(=O)n(C)c3ccc(Cl)cc23)cc1Cl -19.6%
CCc1ccc(NC(=O)CC2C(=O)N(c3ccc(Cl)cc3)C(=O)N2C2CCCC2)cc1 (centres undefined) -13.9%
CCc1c(CN2CCN(c3cccc(C)c3)C(C)C2)csc1C (centres undefined) -6.51%
Cc1cccc(OCCn2c(-c3ccc(Cl)cc3)nc3ccccc3c2=O)c1C 3.64%
